Laboratory results: PubChem BioAssay AID624417 (National Center for Advancing Translational Sciences (NCATS), 2012)
The campaign covered roughly 410,000 compounds. About 6,400 (1.6%) were called active. The shares of active, inactive and inconclusive entries below differ from those in the screen. Calls follow the shape of the dose curve; as a rule, active = well fitted inhibition curve with a large enough effect; inconclusive = small, poorly fitted or top-dose-only effect; inactive = no such curve, though single readings can be large or run the other way. No potency is given beside an inconclusive call; the fits are too rough.

What follows are molecules tested against Glucagon-like peptide 1 receptor (Homo sapiens) (UniProt P43220) (assay: qHTS of GLP-1 Receptor Inverse Agonists (Inhibition Mode)). Details: HEK293 GLP-1R CRE-luciferase, luminescence, 24 h, GLP-1R form is constitutively active; activity change, negative = inhibition: at 38.3 µM (top of the series) unless noted.
Method in brief: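 Using stably transfected HEK293 (constitutively active GLP-1R, cAMP-luciferase reporter), compounds were incubated 24 hr and luciferase measured by luminescence.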
% is scaled to controls: 0 for no effect and ±100 for the full control effect; potency is read from the fitted curve at half-maximal effect; tags tell the direction and shape of the fitted curve.
Also: nearly all actives have a fitted effect of over 55% in size.

Chain of UniProt P43220 (P43220 whole entry, looked up): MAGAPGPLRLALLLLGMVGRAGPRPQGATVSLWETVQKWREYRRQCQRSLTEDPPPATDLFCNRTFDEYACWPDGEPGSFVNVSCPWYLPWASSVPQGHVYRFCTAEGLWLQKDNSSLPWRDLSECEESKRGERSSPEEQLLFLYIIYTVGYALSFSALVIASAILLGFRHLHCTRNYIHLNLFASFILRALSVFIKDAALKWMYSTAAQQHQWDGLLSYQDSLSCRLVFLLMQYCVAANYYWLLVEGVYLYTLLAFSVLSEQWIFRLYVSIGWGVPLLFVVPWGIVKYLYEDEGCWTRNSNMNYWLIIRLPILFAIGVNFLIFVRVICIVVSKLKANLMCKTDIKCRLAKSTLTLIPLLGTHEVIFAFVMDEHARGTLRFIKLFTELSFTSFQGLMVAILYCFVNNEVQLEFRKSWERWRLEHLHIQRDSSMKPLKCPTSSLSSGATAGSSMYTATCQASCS

| Structure (SMILES) | Potency | activity change, negative = inhibition |
| --- | --- | --- |
| Cc1cccc(NC(=S)N(CCN2CCOCC2)Cc2ccccc2F)c1 | inconclusive [inhibitor, single point] | – |
| Cc1ccc(NC(=O)COc2ccccc2)cc1S(=O)(=O)N1CCCCC1 | inconclusive [inhibitor, partial curve] | – |
| COc1ccc(Cl)cc1NC(=O)CCS(=O)(=O)c1ccc(Br)cc1 | inconclusive [inhibitor, partial curve, poor fit] | – |
| CCCCC/C=N/NC(=O)c1[nH]c2ccc([N+](=O)[O-])cc2c1C | inconclusive [inhibitor, partial curve, poor fit] | – |
| C/C(N)=C(/C#N)C(=O)CSc1nc2ccccc2c(=O)n1Cc1ccc(F)cc1 | inconclusive [inhibitor, partial curve, poor fit] | – |
| Cc1c(Cl)cccc1NC(=S)C(=C([O-])c1ccc(Cl)s1)[n+]1ccccc1 | inconclusive [inhibitor, single point] | – |
| COc1cc(/C=C/C(=O)OCC(=O)NCc2ccc(F)cc2)ccc1O | inconclusive [inhibitor, single point] | – |
| CC(C)(C)c1ccccc1OCC(O)CN1CCN(c2ccccn2)CC1 (configuration not stated) | inconclusive [inhibitor, partial curve, poor fit] | – |
| COc1ccc(CC(=O)NC(C)c2nnc(SCC(=O)c3ccc(Br)cc3)n2C)cc1 (configuration not stated) | inactive | – |
| C=CCN1C(=O)C(Cc2ccc(Br)cc2)S/C1=N\N=C\c1ccco1 (configuration not stated) | inconclusive [inhibitor, single point] | – |
| Cc1sc2ccccc2c1CNC[C@H]1O[C@@H](n2cnc(C(N)=O)n2)[C@H](O)[C@@H]1O | inactive | – |
| O=C(NCCN1CCN(c2ccccc2)CC1)Nc1ccccc1Br | inconclusive [inhibitor, single point] | – |
| C/C(=N\Nc1cc(C)nc(-c2ccccc2O)n1)c1ccccc1 | inconclusive [inhibitor, partial curve, poor fit] | – |
| CC(C)C[C@H]1CN=C(Nc2ccccc2)N1CCCC1CCCCC1 | inconclusive [inhibitor, single point] | – |
| C[C@H](CO)N1C[C@H](C)[C@@H](CN(C)S(=O)(=O)c2cn(C)cn2)Oc2c(NS(=O)(=O)c3ccccc3)cccc2C1=O | inactive | – |
| CN(Cc1nc(-c2ccc(Cl)cc2)no1)C(=O)c1ccco1 | inconclusive [inhibitor, single point] | – |
| CCN(CC)CCC(=O)NC(C)(C)Cc1ccc(O)cc1 | inconclusive [inhibitor, full curve] | – |
| CC12CCC(=O)N1C(C(=O)NCCc1ccccc1)CS2 (configuration not stated) | inconclusive [inhibitor, single point] | – |
| N#CCCNS(=O)(=O)c1ccc(C(=O)OCC2CCCCC2)cc1 | inconclusive [inhibitor, single point] | – |
| O=C1C=C(c2ccccc2)CC(/C=C/c2ccccc2)C1 (configuration not stated) | inconclusive [inhibitor, partial curve, poor fit] | – |
| O=C(Nc1cccc(F)c1)C1CCN(C(=O)NCc2ccccc2)CC1 | inconclusive [inhibitor, full curve, poor fit] | – |

| Structure (SMILES) | Potency | activity change, negative = inhibition |
| --- | --- | --- |
| COc1cc(N/C(N)=N/c2nc(C)cc(C)n2)cc(OC)c1 | inconclusive [inhibitor, single point] | – |
| CCc1ccc2c(c1)NC(=O)C2(C)Cc1ccccc1C#N (configuration not stated) | inconclusive [inhibitor, single point] | – |
| O=C(Nc1cccc(NC(=O)c2ccc(Br)o2)c1)c1ccccc1 | inconclusive [inhibitor, single point] | – |
| CC(C)N1C(=O)S/C(=C\c2ccc(-c3ccc(Cl)c(C(=O)O)c3)o2)C1=O | inactive | – |
| COC(=O)C1=C(N)Oc2cc(C)n(Cc3ccco3)c(=O)c2C1c1cccc(Cl)c1 (configuration not stated) | inconclusive [inhibitor, single point] | – |
| COc1ccc(-n2c(=O)c3c4c(sc3n(Cc3cc(C)ccc3C)c2=O)CN(C(C)=O)CC4)c(OC)c1 | inconclusive [inhibitor, single point] | – |
| CCOC(=O)C1(Cc2ccccc2)CCN(Cc2cnn(-c3ccccc3)c2)CC1 | inconclusive [inhibitor, single point] | – |
| C=CCNC(=S)N(C1CCCCC1)C1CCCCC1 | inconclusive [inhibitor, full curve, poor fit] | – |
| OC(COC(c1ccccc1)c1ccccc1)CN1CCc2ccccc2C1 (configuration not stated) | active: 10 µM | – |
| Cc1ccccc1-n1cc(-c2ccccc2)nc1SCC(=O)Nc1ccc(F)cc1 | inconclusive [inhibitor, partial curve, poor fit] | – |
| COc1ccc(CNC(=O)CS(=O)(=O)Cc2nc(-c3cccc(OC)c3)oc2C)cc1 | inconclusive [inhibitor, single point] | – |
| CN(C)S(=O)(=O)N1CCN(CC(O)COc2ccc(-c3ccccc3)cc2)CC1 (configuration not stated) | inconclusive [inhibitor, partial curve, poor fit] | – |
| N#CCCn1cc(CNC2CCC(O)CC2)c2ccccc21 (configuration not stated) | inactive | – |
| COC(=O)c1cc(COc2ccc3c4c(c(=O)oc3c2)CCCC4)c(C)o1 | inconclusive [inhibitor, single point] | – |
| COC(=O)Cc1[nH]nc2c1C(c1cccc(OC)c1OC)C(C#N)=C(N)O2 (configuration not stated) | inactive | – |
| CC(C)(C)c1ccccc1NC(=O)c1ccc2c(c1)SC1=NS(=O)(=O)CCN12 | inconclusive [inhibitor, single point] | – |
| CC(C)c1ccc(OCC(=O)Nc2c(Cl)ccc3nsnc23)cc1 | inconclusive [inhibitor, single point] | – |
| CN(C)S(=O)(=O)c1ccc(C(=O)OCC(=O)NC(=O)NCc2ccccc2)cc1 | inconclusive [inhibitor, single point] | – |
| O=S(=O)(c1ccccc1)N1CCN=C1SCc1ccccc1 | inconclusive [inhibitor, full curve, poor fit] | – |
| Cc1ccc(OCc2nnc(SCC(=O)Nc3sc(C)c(C)c3C#N)n2C)cc1 | inconclusive [inhibitor, partial curve, poor fit] | – |
| CCN1CCN(c2ccc(N3CCN(S(=O)(=O)c4cccc([N+](=O)[O-])c4)CC3)nn2)CC1 | inconclusive [inhibitor, partial curve, poor fit] | – |

| Structure (SMILES) | Potency | activity change, negative = inhibition |
| --- | --- | --- |
| O=C(Nc1cccn(Cc2ccccc2Cl)c1=O)NC1CCCCC1 | inconclusive [inhibitor, partial curve, poor fit] | – |
| CN(c1ccccc1)S(=O)(=O)c1cccc(NC(=O)CN2CCc3ccccc3C2)c1 | inconclusive [inhibitor, partial curve, poor fit] | – |
| c1coc(-c2cc(C3CCNCC3)[nH]n2)c1 | inconclusive [inhibitor, single point] | – |
| Cc1cc(NCCN2CCOCC2)n2c(nc3ccccc32)c1C#N | inactive | – |
| CC(=O)N1CCCc2cc(S(=O)(=O)N(C)CC(=O)Nc3ccc(C)cc3C)ccc21 | inactive | – |
| CCN1C/C(=C\c2cccc([N+](=O)[O-])c2)C(=O)/C(=C/c2cccc([N+](=O)[O-])c2)C1 | inconclusive [inhibitor, partial curve, poor fit] | – |
| Cc1cc(C(=O)OCC(=O)Nc2cc(C(F)(F)F)ccc2N2CCOCC2)c(C)o1 | inconclusive [inhibitor, single point] | – |
| Cc1ccc(-c2nc3ccc(Br)cn3c2Cc2cccc(Cl)c2)cc1 | inconclusive [inhibitor, single point] | – |
| CCN(CC)CCOC(=O)/C=C/c1ccccc1 | inactive | – |
| Nc1nc2c(c(=O)[nH]1)C(c1ccccc1)C1=C(N2)c2ccccc2C1=O (configuration not stated) | inconclusive [inhibitor, single point] | – |
| NC(=S)NN=Cc1ccc(OC(=O)COc2cc(Cl)c(Cl)cc2Cl)cn1 | inconclusive [inhibitor, partial curve, poor fit] | – |
| CCOC(=O)[C@@H]1[C@H]2COc3ccccc3[C@H]2N2C(=O)N(c3ccc(Cl)cc3)C(=O)[C@]12C | inconclusive [inhibitor, single point] | – |
| CCCCCC(O)(CCN1CCCCC1)c1ccc(OCC)cc1 (configuration not stated) | – | inactive: -17.3% [at 7.66 µM] |
| COc1ccc(-c2nnc(SCC(=O)Nc3sc4c(c3C#N)CCC4)n2CC2CCCO2)cc1 (configuration not stated) | inconclusive [inhibitor, full curve, poor fit] | – |
| C/C(=N\NC(=O)C1COc2ccccc2O1)c1ccccn1 (configuration not stated) | inconclusive [inhibitor, full curve, poor fit] | – |
| O=C(CCSc1ccc(Cl)cc1)NC1CCCC1 | inconclusive [inhibitor, partial curve, poor fit] | – |
| CC1CCN(c2nn3c(=O)c(C(=O)NCc4ccc(Cl)cc4)cnc3s2)CC1 | inactive | – |
| O=C(Nc1ccc2c(c1)OCCO2)C(=O)c1c[nH]c2ccccc12 | inconclusive [inhibitor, full curve, poor fit] | – |
| COc1cccc(N/C(C)=C/C(=O)c2ccc(Br)cc2)c1 | inconclusive [inhibitor, single point] | – |
| O=C(NC1CCCC1)C(c1ccccc1)N(Cc1ccco1)C(=O)Cc1cccs1 (configuration not stated) | inconclusive [inhibitor, partial curve, poor fit] | – |
